Data as given in PubChem BioAssay AID1645882 (National Center for Advancing Translational Sciences (NCATS), 2021).
About 120 (0.75%) of roughly 16,000 compounds were called active. Inconclusive results (about 4%) are left out. The call rests on the fitted dose curve; in most records, active means well fitted inhibition curve with a large enough effect; inconclusive means small, poorly fitted or top-dose-only effect; inactive means no such curve, though single readings can be large or run the other way. The list shows a part of the results.

Biological target: Rap guanine nucleotide exchange factor 3 (Homo sapiens) (UniProt O95398)
Test: Validation qHTS for antagonist of cAMP-regulated guanine nucleotide exchange factor 3 (EPAC1); further: nearly all actives have a fitted effect of over 75% in size
Conditions: EPAC1 Rap1B-BODIPY-GDP exchange, fluorescence; series mostly up to 150 µM; activity change, negative = inhibition: at the top concentration
Method in brief: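 EPAC1 (100 nM) mixed with 250 nM RAP1B-BODIPY-GDP and 50 uM GDP; compounds in concentration series, 5 min at room temperature. Fluorescence (ex 480/em 540 nm) read every 5 min for 30 min; normalized to ATA control and DMSO.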

Sequence of UniProt O95398 (O95398 whole entry, looked up): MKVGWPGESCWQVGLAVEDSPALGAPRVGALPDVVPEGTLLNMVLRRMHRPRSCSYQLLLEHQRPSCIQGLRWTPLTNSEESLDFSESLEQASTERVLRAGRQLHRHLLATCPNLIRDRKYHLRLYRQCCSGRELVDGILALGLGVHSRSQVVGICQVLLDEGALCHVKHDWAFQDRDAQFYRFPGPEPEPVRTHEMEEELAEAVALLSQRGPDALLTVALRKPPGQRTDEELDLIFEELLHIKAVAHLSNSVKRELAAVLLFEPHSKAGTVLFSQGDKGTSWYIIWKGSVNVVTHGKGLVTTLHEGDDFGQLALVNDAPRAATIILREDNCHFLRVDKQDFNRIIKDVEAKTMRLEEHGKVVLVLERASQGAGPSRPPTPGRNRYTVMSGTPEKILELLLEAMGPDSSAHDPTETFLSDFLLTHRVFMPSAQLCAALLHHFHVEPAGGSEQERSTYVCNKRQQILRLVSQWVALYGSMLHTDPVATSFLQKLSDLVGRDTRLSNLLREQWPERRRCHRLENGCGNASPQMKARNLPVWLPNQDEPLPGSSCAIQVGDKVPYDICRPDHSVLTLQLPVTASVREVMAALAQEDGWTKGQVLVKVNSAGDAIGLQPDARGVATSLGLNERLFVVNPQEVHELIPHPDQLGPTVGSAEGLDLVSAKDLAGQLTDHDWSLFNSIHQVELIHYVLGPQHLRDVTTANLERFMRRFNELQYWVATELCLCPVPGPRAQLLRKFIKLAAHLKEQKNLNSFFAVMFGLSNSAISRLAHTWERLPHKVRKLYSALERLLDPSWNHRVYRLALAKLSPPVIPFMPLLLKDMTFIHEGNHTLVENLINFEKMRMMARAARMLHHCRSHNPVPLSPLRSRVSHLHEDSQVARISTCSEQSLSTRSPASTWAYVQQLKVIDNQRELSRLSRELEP

Activity change, negative = inhibition, inactive:
COc1ccc(CCNC(=O)c2cnn(-c3nccc(-c4ccco4)n3)c2C)cc1 14.1%
CCN1CCN(c2cc(-c3ccc(F)cc3)c3c(n2)CCCCCC3)CC1 -28.3%
CCNc1ncc2nc(CCc3ccccc3)c(=O)n(CCOC)c2n1 14.7%
Cc1ncc2c(c1CNC(=O)c1ccc3c(c1)OCO3)CCN(C(=O)c1noc3c1CCCC3)C2 4.86%
CN(C)Cc1ccccc1-c1cc(NC2CC2)ncn1 9.23%
O=S(=O)(c1ccccc1)N1CCC[C@@]2(CCN(c3cccc(-c4ccccc4)c3)C2)C1 16.6%
CC(C)(C)NCC(O)c1ccc(O)c(CO)c1 (stereo not given)
Cc1cccnc1-c1cccc2c1OC(CNC(=O)C(=O)c1ccccc1)C2 (stereo not given) -3.31%
CCOC(=O)C[C@H]1c2ccccc2S(=O)(=O)N1Cc1cc(OC)c(OC)c(OC)c1 8.27%
CN1CCCC(CNC(=O)c2cnn(-c3ncc4c(n3)-c3ccccc3CC4)c2C2CC2)C1 (stereo not given) 10.9%
CNC1C(O)C(O[C@H]2C(O)[C@@H](OC3OC(CN)=CCC3N)[C@H](N)C[C@@H]2N)OC[C@]1(C)O (stereo not given in full) 5.95%
Cc1nc2cnc(Oc3ccccc3)nc2n(-c2ccccc2)c1=O 9.27%
O=C(C[n+]1ccccc1Br)c1ccc(-c2ccccc2)cc1 0.0962%
COc1cc2c(cc1OC)C(c1c[nH]c3ccccc13)NCC2 (stereo not given) 10.7%
CCCCC[C@H](O)CC(=O)CCc1ccc(O)c(OC)c1
N#Cc1cccc(-c2ccc3ncnc(NC4CCNCC4)c3c2)c1 -2.51%
CCC(=O)N[C@@H]1c2ccccc2C2(CCN(Cc3[nH]c4c(Cl)cccc4c3C)CC2)[C@H]1OC 4.26%
COc1cc(/C(=C/c2ccccc2)c2ccccc2)c2c(c1)oc1ccccc12 4.36%
CCCCCCCC/C=C\CCCCCCCC(=O)O 12.9%
COC(=O)c1cc(CNC(=O)c2ccc(N(C)C)cc2)cc(NC(=O)c2ccccc2Cl)c1 5.97%
O=C(CSc1ccncc1)NCC1Cc2cccc(-c3cncnc3)c2O1 (stereo not given) 4.41%
COc1ccc(O)c(CN2CCC3(CC2)c2ccccc2[C@@H](NC(=O)c2cccc(F)c2)[C@@H]3OC)c1 -7.6%
Cn1c(=O)c2[nH]c(Br)nc2n(C)c1=O 14.8%
CCCCC[C@H](O)/C=C/[C@@H]1[C@H]2C/C(=C/CCCC(=O)O)O[C@H]2C[C@H]1O 7.63%
NC(=O)[C@@H]1CCCN1C(=O)[C@H](Cc1cnc[nH]1)NC(=O)[C@@H]1CCC(=O)N1 13.6%
COc1ncc2nc(-c3ccccc3)c(=O)n(-c3ccccc3)c2n1 11.2%
O=C(c1cccc(F)c1)N1CCC2(CC1)CN(c1ccc(-c3ccccc3)cc1)C2 0.162%
COc1ccc(C2OC3C(CO)OC(n4cnc5c(=O)[nH]c(N)nc54)C3O2)cc1 (stereo not given) 9.03%
C=CCOc1cc(Cl)ccc1C(=O)NCCN(CC)CC 21%
O=C(N[C@H]1CCC(=O)N([C@H](CSc2ccc(Br)cc2)Cc2ccccc2)CC1)OCc1ccccc1 -17.8%
O=C(COCCOCCOCC(=O)Nc1c(I)cc(I)c(C(=O)O)c1I)Nc1c(I)cc(I)c(C(=O)O)c1I -2.57%
CN1CCC(N(Cc2cccs2)c2ccccc2)CC1 29.5%
COC1=C(OC)C(=O)C(C/C=C(\C)CC/C=C(\C)CC/C=C(\C)CC/C=C(\C)CC/C=C(\C)CC/C=C(\C)CC/C=C(\C)CC/C=C(\C)CC/C=C(\C)CCC=C(C)C)=C(C)C1=O 11.6%
O=C(O)c1ccccc1Nc1cccc(OCc2ccc3ccccc3n2)c1 11.3% [at 75.8 µM]
CC(=O)c1ccc(C(=O)NCc2nc(-c3ccccc3NC(=O)c3cc(C)oc3C)oc2C)cc1 1.98%
CN(C)CC/C=C1/c2ccccc2COc2ccccc21 25.8%
CC(=O)NCCc1c(Cc2ccccc2)[nH]c2ccccc12
c1cncc(-c2ccc3ncnc(NCCN4CCOCC4)c3c2)c1 2.97%
COc1ccc2cc1Oc1ccc(cc1)C[C@H]1c3c(cc4c(c3Oc3cc5c(cc3OC)CCN(C)[C@@H]5C2)OCO4)CCN1C 10.1%
COCCNc1ncncc1-c1c(C)noc1C 19.7%
COc1cc(C(O)C(=O)O)ccc1O (stereo not given)
Cc1ccc(C(=O)N(Cc2cc3cc4c(cc3nc2N2CCOCC2)CCC4)CC2CCCO2)cc1 (stereo not given) -21%
Nn1cc(Br)c(=O)[nH]c1=O 13.7%
O=C(O)C(=O)Nc1cccc(C2=NN=N[N]2)c1 32.5%
COc1cccc(Cn2c(=O)cnc3cnc(Oc4ccccc4)nc32)c1 5.19%
CCNc1ncc2nc(-c3cn(C)c4ccccc34)c(=O)n(Cc3cccs3)c2n1 13%
O=C(c1cnn(-c2nccc(-c3ccccc3C(F)(F)F)n2)c1C1CC1)N1CCN(CCO)CC1 17.5%
C=C1CCC2C(C)(CO)C(O)CCC2(C)C1C/C=C1\C(=O)OCC1O (stereo not given) 12.9%
COc1cc(=O)n2c(c1C(=O)NC(C)c1ccco1)CCN(C(=O)c1cccc(C)c1C)CC2 (stereo not given) 1.1%
CCOC(=O)c1ccc(O)cc1 22.8%
